Assay results taken from the supplement of paper PMC9446081.
The campaign covered roughly 39,000 compounds. About 220 (0.56%) showed activity. This is one part of the list.

Test system: Escherichia coli K-12 BW25113
Test: relative growth (OD600 normalised to plate interquartile mean) (fraction); higher = less growth inhibition, active = 0.2 or less
Conditions: 50 µM; LB; incubation time: overnight (16-24 h)
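Further: static incubation at 37 °C against the wild-type strain, values averaged over two biological replicates.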

Compound	relative growth
C[C@@H]1CCCCO[C@H](CN(C)C(=O)Cc2ccccc2)[C@H](C)CN([C@@H](C)CO)C(=O)c2cc(NC(=O)C3CCCCC3)ccc2O1	inactive: 0.977
C[C@H]1CN([C@@H](C)CO)C(=O)c2cccc(NS(=O)(=O)c3cccs3)c2O[C@H]1CN(C)S(=O)(=O)c1cn(C)cn1	inactive: 1.01
CC12CCC(=O)C=C1C1CC1C1C2CCC2(C)C1C1CC1C21CCC(=O)O1 (configuration not stated)	inactive: 1.08
C[C@H](CO)N1C[C@H](C)[C@H](CN(C)S(=O)(=O)c2ccc(C#N)cc2)Oc2ncc(Br)cc2C1=O	inactive: 0.973
CC(C)CC#Cc1ccc2c(c1)O[C@@H](CN(C)C(=O)Cc1ccncc1)[C@H](C)CN([C@H](C)CO)S2(=O)=O	inactive: 0.949
O=C(C[C@@H]1C[C@H]2c3cc(NC(=O)C4CCOCC4)ccc3O[C@H]2[C@H](CO)O1)NCc1ccc2c(c1)OCO2	inactive: 1.01
C[C@@H]1CN([C@H](C)CO)C(=O)c2cc(NC(=O)Cc3ccccc3)ccc2O[C@@H](C)CCCCO[C@H]1CN(C)S(=O)(=O)c1cccs1	inactive: 1.05
C[C@H](CO)N1C[C@H](C)[C@@H](CN(C)S(=O)(=O)c2cn(C)cn2)OCCCC[C@H](C)Oc2ccc(NS(C)(=O)=O)cc2C1=O	inactive: 0.994
N[C@H]1CCN(O)C1=O	inactive: 1.01
Cc1cc(C(=O)Nc2cccc3c2O[C@@H](CN(C)Cc2ccc(Oc4ccccc4)cc2)[C@@H](C)CN([C@H](C)CO)C3=O)n(C)n1	inactive: 1.02
O=C(C[C@@H]1CC[C@@H]2[C@H](COC[C@@H](O)CN2C(=O)c2cnccn2)O1)NCc1ccc(Oc2ccccc2)cc1	inactive: 0.995
COc1ccc(S(=O)(=O)Nc2ccc3c(c2)C(=O)N([C@H](C)CO)C[C@@H](C)[C@@H](CN(C)C(=O)C2CCCCC2)OCCCC[C@@H](C)O3)cc1	inactive: 1.01
CN(C)c1ccc(O)c2c1CC1CC3C(N(C)C)C(O)=C(C(N)=O)C(=O)C3(O)C(O)=C1C2=O.Cl (configuration not stated)	active: 0.0626
N=C(N)N/N=C1\CCc2c(C(=N)N)cccc21	inactive: 1.01
C[C@@H]1CN([C@@H](C)CO)C(=O)c2cc(C#CCN(C)C)cnc2O[C@H]1CN(C)Cc1ccc2c(c1)OCO2	inactive: 1.01
CN(C)c1cc(NC(=O)CNC(C)(C)C)c(O)c2c1C[C@H]1C[C@H]3[C@H](N(C)C)C(=O)C(C(N)=O)=C(O)[C@@]3(O)C(=O)[C@H]1C2=O	inactive: 1
CO[C@H]1CN(C)C(=O)c2cc(NS(=O)(=O)CC(F)(F)F)ccc2OC[C@@H](C)N(C(=O)NC(C)C)C[C@@H]1C	inactive: 0.966
